One may read the IC50 as the concentration that gives 50% inhibition.

For part of its entries the source gives two or more results. The other results are left out here. The source may hold further records. The values listed for one entry repeat one measurement in other runs, samples, wells, individuals or studies. Counts like (3×) give the number of equal values in this list.

In this experiment the test system is MCF7 multi-cell spheroids with HUVEC/MSC, viability. The experiment in a line: Anticancer human tumor MCF7 cell line growth inhibition [IpAb].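 On all read-outs here: spheroids exposed to agents for seven days before readout.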 As to conditions: for viability, T/C: stronger effect = lower value. The text has this:
Combinatorial screen of targeted agents with ipatasertib and abemaciclib in multi-cell type tumor spheroids
A high-throughput screen of multi-cell type tumor spheroids was designed to identify active combinations of targeted small molecules and ipatasertib or abemaciclib. Complex spheroids include a stromal component modeled by human endothelial cells (HUVEC) and fibroblasts modeled by human mesenchymal stem cells (MSCs). The concentration ranges selected for each drug and investigational agent were based upon clinically achievable concentrations if the clinical Cmax of the agent was known.
Compounds. The drugs and investigational agents: ipatasertib (NSC767898), abemaciclib(NSC768073), selumetinib (NSC741078), trametinib (758246), adavosertib (NSC754352), everolimus (NSC733504), sapanisertib (NSC764658), vemurafenib (NSC761431), venetoclax (NSC766270), copanlisib (NSC809693), apelisib (NSC765974), palbociblib (NSC758247), vemurafenib (NSC761431), dabrafenib (NSC764134), ravoxertinib (NSC781343), BMS-387032 (NSC767048), sotorasib (NSC818433), talazoparib (NSC767125) and afursertib (NSC778305), were obtained from the National Cancer Institute (NCI) Developmental Therapeutics Program Chemical Repository. The FDA-approved anticancer drug set is available from the NCI Developmental Therapeutics Program. […] The stock solutions were prepared in dimethyl sulfoxide (DMSO, Sigma-Aldrich, St. Louis, MO, cat. D2650) at 800-fold the tested concentration and stored at -70 degrees C prior to their use. All drugs and investigational agents were tested over a range starting from a high concentration at or near the clinical Cmax and decreasing in half-log increments. If the clinical Cmax for an agent had not been determined, the highest concentration tested was 10 microM.
NCI60 Cell Culture. NCI60 cell lines were obtained from the NCI Developmental Therapeutics Program Tumor Repository. For each lot of cells, the Repository performed Applied Biosystems AmpFLSTR Identifiler testing with PCR amplification to confirm consistency with the published Identifier STR profile for each cell line. Cells were kept in continuous culture for no more than 20 passages. The optimal seeding densities for each of the cell lines at each time point assessed were determined prior to performing the concentration response studies. Briefly, the NCI60 human tumor lines were grown as monolayers in RPMI 1640 medium supplemented with 10% FBS and 2 mmol/L L-glutamine.
An additional 9 lines were from the NCI60 cell line panel including MDA-MB-231 breast carcinoma, MDA-MB-468 breast carcinoma, MCF7 breast carcinoma, Hs578T breast carcinoma, MALME-3M melanoma, SK-MEL-2 melanoma, SK-OV-3 ovarian carcinoma, DU-145 prostate carcinoma, PC-3 prostate carcinoma, all cell lines along with major genetic alterations are listed on Table 2. Pooled donor human umbilical vein endothelial cells (HUVEC, Lonza, cat. CC-2519) and human mesenchymal stem cells (hMSC, Lonza, cat. PT-2501) were purchased from Lonza (Walkersville, MD).
PDMR cell lines were grown in complete medium (DC medium): Dulbecco's modified Eagle's medium (DMEM)/F12 supplemented with 5% fetal bovine serum (FBS), 2 mM L-glutamine, 100 U/mL penicillin and 100 µg/ml streptomycin, 0.4 µg/ml hydrocortisone, 10 ng/ml epidermal growth factor (EGF) recombinant human protein, 24 µg/mL adenine, and 0.1 mg/mL primocin. During culture from frozen stock vials, PDMR cells were cultured in the same medium containing 10 µM Y-27632 (see Table 3). […]

On to `CCN1CCN(Cc2ccc(Nc3ncc(F)c(-c4cc(F)c5nc(C)n(C(C)C)c5c4)n3)nc2)CC1`, for which the viability, T/C is, setting by setting: (compound alone 0.1 µM) 114, 90.8, 100, 101, 103 (2×), 104 (2×), 102, 111, 117, 106% (2×); (compound alone 0.316 µM) 110, 93, 79.4, 97.8, 120, 94.9, 123, 85.5, 107 (2×), 112, 103, 98.2%; (compound alone 1 µM) 105 (2×), 93.2, 68.7, 103, 102, 80.6, 92.5, 82.2, 75, 113, 94.3, 93.5%.
Regarding `CC(C)NCC(C(=O)N1CCN(c2ncnc3c2C(C)CC3O)CC1)c1ccc(Cl)cc1` (stereo not given), for the setting “compound alone 10 µM”, the viability, T/C is given as 34.9, 27.5, 41, 40.8, 51, 24.1, 29.4, 44.1, 44.7, 45.7, 31.8, 37, 34.5%. For the same molecule, the IC50 (compound alone, run of 06/01/2021) is 1.69 µM, 2.07 µM, 4.07 µM, 5.37 µM, > 10 µM, 1.12 µM, 2.27 µM, 4.79 µM, 6.2 µM, 6.7 µM, 2.38 µM, 2.8 µM, 4.73 µM.

(Values after PubChem BioAssay AID2060329 (Molecular Pharmacology Branch, DTP, NCI, 2025).)
